Here are results for 167 variants from the RNAGym collection of RNA variant scans (doi:10.7554/elife.90254).

The source gives no read counts; variants with many changes may rest on few reads.

B1: LINE1-mini (parent)
chain: GGCAGAGCUCAACACAGCGUGGCAAAGUGGCUGUGGCUAGACUGCC

This data set covers variants of B1. Put plainly: self-cleavage, relative activity (ratio to wild type); higher = more cleavage; in vitro, sequencing; the parent is a self-cleaving ribozyme.
As for A6G G27U C31U C46A, the self-cleavage was determined as 0.02.

Turning to A6C C31A U32C C42U, the self-cleavage came out at 0.1.

Take A6G A26G G36U A39C: the self-cleavage came out at 0.02.

Turning to A6C C23U C37A G40A, the self-cleavage worked out at 0.07.

Consider A6G G33A A39C A41G, for which the self-cleavage amounted to 0.02.

Take A6G C10A G40A A41G G44U: the self-cleavage came to 0.02.

As to A6C C15A G19C C23G, the self-cleavage came out at 0.35.

A6G A12U A41G: the self-cleavage was 0.05.

Consider A6C A39G C46U, for which the self-cleavage is 0.02.

In the case of G5U U9C A25U, the self-cleavage came out at 0.01.

Consider A6C C10A U38G C46U, for which the self-cleavage came out at 0.01.

As for A6G C8A G35A, the self-cleavage turned out to be 0.08.

As to A6C A11U A26G, the self-cleavage was 0.04.

Turning to A6C A14C G19C A26U, the self-cleavage stood at 0.02.

A6G C13A G19A U43A C45U: the self-cleavage is 0.21.

On to A6G G22U G30A, for which the self-cleavage stood at 0.29.

Take A6G C10G G30U C31A: the self-cleavage was found to be 0.

As for A6G C8G C37G U43G, the self-cleavage was 0.08.

As to A6C U20C A41U, the self-cleavage was 0.25.

On to A6C U34G C42A, for which the self-cleavage amounted to 0.03.

As for A6C U20A G40A C45U, the self-cleavage came to 0.04.

Regarding A6C A11G U28A, the self-cleavage turned out to be 0.07.

A6C C13U U34C: the self-cleavage was 0.05.

Take G5U U9G A12C C42G U43C: the self-cleavage worked out at 0.01.

Take A6G A16C G22A C31A A39C C45A: the self-cleavage came to 0.01.

Take A6C U9C A12C G21U: the self-cleavage was determined as 0.03.

In the case of A6C G17A G19A C45A, the self-cleavage amounted to 0.81.

With A6G G7C G19A G33A, the self-cleavage came to 0.12.

Regarding A6G C10U A41C C45A, the self-cleavage came to 0.04.

With A6G G35U G36C, the self-cleavage was determined as 0.15.

As to A6C C15G A26G, the self-cleavage worked out at 0.04.

For A6C G22A A39G G44U, the self-cleavage was 0.06.

Turning to A6C G19U U20G A25C U43A, the self-cleavage came to 0.11.

As to A6C C13A A14C C18U G27A, the self-cleavage worked out at 0.17.

For A6C C10A U28G, the self-cleavage turned out to be 0.02.

On to A6C C15A C18G A24G C31U G36U, for which the self-cleavage was determined as 0.01.

With A6G A12G A24C G36U C37A G44A, the self-cleavage was found to be 0.02.

For the variant A6C G22U A24G A25C C46A, the self-cleavage was determined as 0.12.

In the case of A6C A25C G40C U43A, the self-cleavage is 0.

Consider A6C G27A G29A G40U, for which the self-cleavage was 0.05.

Consider A6G A16G C46G, for which the self-cleavage was determined as 0.03.

As to A6C C13U C15A G19U C37G, the self-cleavage stood at 0.22.

Turning to A6C A14G G22U A41G C46A, the self-cleavage worked out at 0.12.

With A6G G27U G35U, the self-cleavage is 0.09.

On to G5U U28C C46U, for which the self-cleavage came to 0.02.

In the case of A6G C8A U9A C23U A24G, the self-cleavage turned out to be 0.27.

A6C A26C G33A: the self-cleavage came out at 0.08.

A6C U9G C10G G21U C37A C45U: the self-cleavage is 0.01.

For A6C C10A A11G G35U, the self-cleavage stood at 0.01.

Regarding G5U U9A G35U, the self-cleavage stood at 0.44.

A6G G22U A39C: the self-cleavage amounted to 0.02.

With A6C A16U U38G, the self-cleavage was found to be 0.01.

Turning to G5U U20G G22U C42U G44C, the self-cleavage came out at 0.05.

For the variant A6C G17A C23G C45A, the self-cleavage is 0.02.

As for A6C G29U G33A, the self-cleavage was 0.03.

Regarding A6G C8G U9G C18G G29C C31G U34A, the self-cleavage came to 0.01.

As for A6C G17C A24U G30U C45U, the self-cleavage was 0.12.

Turning to A6G C10G C46G, the self-cleavage amounted to 0.01.

For the variant A6G C10A G21A U32G, the self-cleavage amounted to 0.01.

As to A6G G19A C23U G27A U43C, the self-cleavage stood at 0.05.

With A6G G7A C18U G22C, the self-cleavage was found to be 0.07.

For A6G G19A G22C C23G C37U A39U, the self-cleavage is 0.02.

Regarding A6G A24U A41U C46U, the self-cleavage amounted to 0.1.

With A6C C15U C31U U38G, the self-cleavage is 0.04.

As to A6C U20C U34G, the self-cleavage was 0.03.

Regarding A6G C18U G22U C23A, the self-cleavage came out at 0.56.

For the variant A6C G7A C13A G21U, the self-cleavage was 0.16.

A6C U34C C37U: the self-cleavage came out at 0.08.

Take A6G C13A G29U C31A: the self-cleavage is 0.05.

For A6C C8G G29U C46A, the self-cleavage is 0.01.

In the case of A6G G33A C46U, the self-cleavage worked out at 0.02.

With A6G C13A C15G C23A A25C C31U A41G, the self-cleavage worked out at 0.02.

Turning to G5U U32G A41U, the self-cleavage was 0.

For the variant A6G C10U C37U, the self-cleavage was 0.01.

Consider A6G C13A G22U C23G G44U, for which the self-cleavage was 0.07.

Turning to A6C G33A C45U, the self-cleavage turned out to be 0.03.

Regarding A6G U9C A11G G44C, the self-cleavage was determined as 0.01.

With A6C C13U C18U C23G, the self-cleavage turned out to be 0.09.

Take A6G G19C G29U: the self-cleavage came out at 0.05.

As for A6G G30U U34G C42U, the self-cleavage is 0.

In the case of A6C U34A C37A U38A A41U C46U, the self-cleavage was found to be 0.02.

In the case of A6C C8G C10G G19U, the self-cleavage is 0.05.

As for A6C A25G G35U C42A, the self-cleavage worked out at 0.01.

On to A6C A25U C31G, for which the self-cleavage came out at 0.08.

In the case of A6G G17A C23A, the self-cleavage is 0.05.

For the variant A6C C15G C42A, the self-cleavage was 0.

For A6G A24G U32A, the self-cleavage turned out to be 0.15.

With A6G C13U U32G, the self-cleavage came out at 0.04.

As to A6G C10G U38C, the self-cleavage worked out at 0.01.

Turning to A6G G7U A11G C15A G21C G22U, the self-cleavage came to 0.03.

For A6G A24C U28A, the self-cleavage stood at 0.1.

As to A6C A24U C42G, the self-cleavage was found to be 0.06.

Take A6C U38A C46G: the self-cleavage is 0.06.

For A6C C10A C13U G29C C31U, the self-cleavage was 0.02.

As to A6G C15A G21C A26U U34G A39C, the self-cleavage amounted to 0.02.

On to A6G C8U G22C U38G G44A, for which the self-cleavage worked out at 0.03.

A6G G22C G36U U43A: the self-cleavage came to 0.

A6G C8G G22C G40C: the self-cleavage came out at 0.03.

A6G A14G C31U: the self-cleavage worked out at 0.07.

In the case of A6C A16G G17U C18A A26G U38G, the self-cleavage was 0.02.

A6G G21U G29C C37U: the self-cleavage stood at 0.02.

As to A6C A16G C18U G29A C31A, the self-cleavage came to 0.

Regarding A6G G33C A39C, the self-cleavage came to 0.04.

With A6G C31A C37G G44C, the self-cleavage came to 0.03.

With A6G G40U A41U C42A U43A, the self-cleavage stood at 0.07.

Regarding A6G C10A G36U C42U, the self-cleavage is 0.01.

Regarding A6C G29C G40U C46U, the self-cleavage came to 0.07.

As for A6G C8A C23G, the self-cleavage came to 0.35.

As to A6C C23G C31A A41U, the self-cleavage is 0.04.

For A6C G7U G35U G36A U43G, the self-cleavage came to 0.04.

Turning to G5U U9C C15A G22A, the self-cleavage was 0.03.

On to A6C G21U U28A, for which the self-cleavage turned out to be 0.09.

With A6G G40C C46G, the self-cleavage amounted to 0.02.

Regarding A6G C10G G27C G35U U43C, the self-cleavage worked out at 0.01.

With A6C C23U G36C, the self-cleavage amounted to 0.08.

Consider A6C A12G C23U G33U, for which the self-cleavage stood at 0.03.

Turning to A6C G7U G29C, the self-cleavage was determined as 0.03.

Take A6G C15U G35U: the self-cleavage turned out to be 0.27.

In the case of A6G C15G U32G A39C, the self-cleavage stood at 0.02.

As to A6G C31A A39C, the self-cleavage came out at 0.03.

For A6C C13U G19C U32G, the self-cleavage was 0.22.

A6G G19C U20G G30A: the self-cleavage worked out at 0.08.

A6G G22U A24C A25G: the self-cleavage amounted to 0.11.

For the variant A6G C18U U20A, the self-cleavage is 0.04.

Turning to A6C A26C G27C G36C G44U, the self-cleavage came out at 0.03.

With G5U U9G U28C, the self-cleavage turned out to be 0.04.

Take A6G C8A C10U G29C C31A: the self-cleavage came to 0.01.

For the variant A6C G17U C31U C46A, the self-cleavage was 0.09.

Regarding A6C C37U U43A, the self-cleavage turned out to be 0.06.

Take G5U U9G A12C C13G A14G G21C: the self-cleavage was 0.02.

A6G A11U A24C U43A: the self-cleavage is 0.

In the case of A6G C15U G35U C45A, the self-cleavage was determined as 0.

For A6C C8A C15G, the self-cleavage is 0.36.

As for A6G G7U A14G A25U U28C C37U, the self-cleavage was found to be 0.06.

On to A6C A26C G29C G35C, for which the self-cleavage was 0.05.

As to A6C A16C G33U, the self-cleavage was 0.02.

Turning to A6C C13G G21C C23G G29C G40U, the self-cleavage is 0.07.

For A6G C13U G40C, the self-cleavage came to 0.05.

A6G C10U A14U G22U: the self-cleavage amounted to 0.11.

On to A6G C15A G22C G27U U34G C46G, for which the self-cleavage came out at 0.03.

As for A6C U9C C10U, the self-cleavage amounted to 0.01.

A6C A14G A39C C45U: the self-cleavage was determined as 0.

A6G G17A G27U C46A: the self-cleavage was determined as 0.02.

As for G5U U9C G21C G44A, the self-cleavage was 0.05.

On to A6G G22U C23A C45G, for which the self-cleavage turned out to be 0.16.

Take G5U U20G A24C G36U: the self-cleavage stood at 0.02.

As to A6G G19C A26U, the self-cleavage worked out at 0.22.

Take A6C C13A G27A: the self-cleavage is 0.14.

Consider A6G G30A A41C, for which the self-cleavage is 0.06.

A6G G27C G33C: the self-cleavage amounted to 0.02.

Regarding A6C A16G C18A G22U C23A G35C C42G, the self-cleavage was 0.

For G5U U9G C13A G19U C31U C46U, the self-cleavage came out at 0.02.

As to A6C A12U U28C, the self-cleavage worked out at 0.13.

As to A6G U9C A24G, the self-cleavage was 0.

Take A6C C13G G35A: the self-cleavage was found to be 0.05.

A6C G7U A11U G19U: the self-cleavage came out at 0.01.

For A6C U9C U38C, the self-cleavage stood at 0.02.

For A6C C8A G17A C18G C23U, the self-cleavage was found to be 0.01.

A6G G7U G17C G21C: the self-cleavage was found to be 0.03.

For the variant A6G A11G U34A, the self-cleavage was 0.01.

With A6C G7U A14U G29C U43A, the self-cleavage came out at 0.71.

In the case of A6C U28A U38C, the self-cleavage is 0.12.

Consider A6G A14U A24G G36U A41G, for which the self-cleavage worked out at 0.05.

Regarding A6C C8A C13A C23A, the self-cleavage amounted to 0.54.

As for A6C G17A G21C, the self-cleavage stood at 0.18.

Take G5U U28C G33A G40U: the self-cleavage was found to be 0.02.

A6G C8U U9C C10A U28C G33U: the self-cleavage worked out at 0.09.
